The text below walks through data of the supplement of paper PMC11417369.

Some of the results follow.

The subject of this assay is PfSIP2 AP2 domain 1 (GST-tagged). As to the kind of experiment: gcPBM binding intensity (ln(normalized median fluorescence intensity)); higher = stronger DNA binding. In short, it runs like this: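 Plasmodium falciparum DNA-binding domains carrying a GST tag were expressed in E. coli and applied for 1 h, at about 25 μg on average, to an Agilent 4 × 180k array. The array held primer-extended double-stranded 36-bp intergenic genomic probes together with negative controls, and binding took place in 1× PBS with 1% milk, 0.2 mg/ml BSA, 0.5% salmon testes DNA and 0.03% Triton X-100. An Alexa488 anti-GST antibody detected bound protein, and the array was scanned at 488 nm. Binding intensity is taken as the highest Masliner-normalised natural-log median intensity across replicate spots of either probe orientation.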
Regarding “TAAAATAAAAATATAGTGCACAGATTTTGATATTTT [GTGCAC_site9696]”, the “gcPBM binding intensity (ln)” value is 9.7. Consider “CACATTATGTATCATACACACAAATAGATATATAAC [CACACA_site6434]”, for which the “gcPBM binding intensity (ln)” value turned out to be 7.11. Under “TGAAGGTTTCAAAAACGTACAAAAAAAAATGTTAGT [XGTACX_site8803]” stands 7.11; under “TTTTTTTTTTATGGTACACACACGCGTATGGTTGCA [CACACA_site1876]”, 6.99. For “TTTAGAAATAAATACACACATACATTTTTGTATACA [CACACA_site718]” the value was 6.84.

In the case of “AATAAATATATAAATACACACAAACATACAGATATA [CACACA_site6088]”, the “gcPBM binding intensity (ln)” value turned out to be 6.96. Under “TTTAAAAGATAAAGACTGCACTTTAAGCACACAAAT [GTGCAC_site9752]” stands 8.74; under “AATTCCTATAATGAGAGTACGCATTAGAACAGTAGG [XGTACX_site5721]”, 7.17; under “TTGATAAAAAAAAAAAAATAAAAAAAAAATAAAAAA [XGTACX_negctrl_site480]”, 6.63. For “AAATTGTAGAAGCGTATTTCTCGAACTGGATGAATA [CACACA_negctrl_site1373]” the value was 6.87; for “AATTAATGGAAACAAGTCAAATGATCTTTATGCATA [TGCATGCA_negctrl_site540]”, 6.66; for “TTTATATCGACTCTTCTTTATATAAGTTGTGATGTT [TGCATGCA_negctrl_site362]”, 6.81. As to TAAAGTGTAAAGAAGGTGCTCATTATTTATTTTTTT, the “gcPBM binding intensity (ln)” value is 7.62. For “AGTTTCCTTGAGAAAAGTACGTAATACTACATATAT [XGTACX_site818]”, the “gcPBM binding intensity (ln)” value stood at 6.87. For “TTTATATTAGGTCTTGAACGATTTTCATCATTATTA [TGCATGCA_negctrl_site100]” the value was 6.73; for “ATATGATATATTTTATGTACATATAAAACATATATA [XGTACX_site4297]”, 7.23; for “TTATACTTTTTTTCTTGGTGTAGAAAAAAAAGTTAG [CACACA_negctrl_site1207]”, 7.08.

In the case of “AAAAAAGAAACAAACACACATACATACAAACAAACA [CACACA_site142]”, the “gcPBM binding intensity (ln)” value is 7.08. For “AAAATTTAATATAATGCACACATAAAAAAAAATTCA [CACACA_site8640]” the value was 7.09; for TCCTGCCTCTCTTTGGTGCGTTGTAACCCTCGAGGA, 8.85; for “ATATTAATATACATATGTACATATATATATATATAT [XGTACX_site7425]”, 8.88. On to “TAAATTATTTATAAAGCACACAAGAAAAAATAAAAT [CACACA_site2132]”, for which the “gcPBM binding intensity (ln)” value amounted to 7.38. For “TAAAGGCAAACAAACACACACACATATATACATATA [CACACA_site2123]”, the “gcPBM binding intensity (ln)” value came to 6.86. Under “CCAATACTGTTTAAATGTACAAGTAGGAGGTTAATT [XGTACX_site7260]” stands 6.95; under “AAAAATTAACAAAAGGTGCAAACAAATAGTGGTTTT [GTGCAC_site9998]”, 10.8. Under “AAAAAAGTAAAAAGTGCATGTAAAATATAAGTATCT [TGCATGCA_site55]” stands 8.99; under “TTTTTTTTTTATTTTGCACACTTCTAATTTAGTTGT [CACACA_site3429]”, 7.56; under “GTTATTCTTAATTTTTGTACACATTTTTATATTATT [XGTACX_site7227]”, 7.67. On to “ATATATATGTATATGTGTACTTATATTTGTCATTTT [XGTACX_site1317]”, for which the “gcPBM binding intensity (ln)” value was 7.11. Under “AAAAAAATTAAACACACACACACATATATATATATA [CACACA_site4718]” stands 9.42; under “GAACAAAAGGAATGTTGTACATAAAAAATGAAAAAT [XGTACX_site3929]”, 7.04; under “AAAAAAAAAAAAAAAAGGGGGGGAGGGATTGAAAAA [CACACA_negctrl_site193]”, 8.54. Under “ACAGTATTTCGAGATGGTACACATATATATATATAT [XGTACX_site6880]” stands 9.67; under “AATGAGGATATATACACACATACATTAAAAAAATAT [CACACA_site1849]”, 7.08. For “ATGAGTTACATGGGAAAAATATATATATATATATAT [CACACA_negctrl_site579]”, the “gcPBM binding intensity (ln)” value turned out to be 9.42. For “TGATAAATATGGAGCACACACACATAAACATACATA [CACACA_site420]” the value was 7; for “TTGTTGTATTATTTATGTACATATGTATATGTATAT [XGTACX_site1315]”, 7.17; for “TTTAAAAGATAAAACACACATACTAATAAAAAACAA [CACACA_site2556]”, 7.39. Take TTGTATCCTTAATGCATGCACCAAATAACAAAAGTA: the “gcPBM binding intensity (ln)” value turned out to be 10.6. For “ACATATATAAAATAATGTACATTTTTAAGAATGCGT [XGTACX_site7654]” the value was 7.13; for “ATTATAATTGCATATACACACAAAGGTTCATAACAA [CACACA_site7440]”, 7.32; for “TATAATAAAATATGTACACACATACACCCATATATA [CACACA_site4808]”, 7.13. Turning to “ACAAGTAATTAAGAGTGTACATAACTATAAATCCAA [XGTACX_site5215]”, the “gcPBM binding intensity (ln)” value was 7.03.

With “TGTATGTATGTATTATTTGTTATTTTAATTTTTTTG [TGCATGCA_negctrl_site256]”, the “gcPBM binding intensity (ln)” value worked out at 7.43. For the sequence “AAAAATGATATGAGTTGTACATAAGTAAGAATTATT [XGTACX_site7089]”, the “gcPBM binding intensity (ln)” value worked out at 6.82.
